The values that follow come from publication PMC4336329 (PLoS ONE, 2015).

Among all 310,000 compounds or so, about 2,200 (0.71%) showed an effect of 50% or more. Effects have a minus sign here. The list shows a part of the results.

The target in this experiment is human ether-à-go-go-related gene (hERG) potassium channel (human, UniProt Q12809). Put plainly: primary screen, population patch clamp on CHO cells stably expressing hERG.
Sequence of human ether-à-go-go-related gene (hERG) potassium channel (Q12809 whole entry, looked up): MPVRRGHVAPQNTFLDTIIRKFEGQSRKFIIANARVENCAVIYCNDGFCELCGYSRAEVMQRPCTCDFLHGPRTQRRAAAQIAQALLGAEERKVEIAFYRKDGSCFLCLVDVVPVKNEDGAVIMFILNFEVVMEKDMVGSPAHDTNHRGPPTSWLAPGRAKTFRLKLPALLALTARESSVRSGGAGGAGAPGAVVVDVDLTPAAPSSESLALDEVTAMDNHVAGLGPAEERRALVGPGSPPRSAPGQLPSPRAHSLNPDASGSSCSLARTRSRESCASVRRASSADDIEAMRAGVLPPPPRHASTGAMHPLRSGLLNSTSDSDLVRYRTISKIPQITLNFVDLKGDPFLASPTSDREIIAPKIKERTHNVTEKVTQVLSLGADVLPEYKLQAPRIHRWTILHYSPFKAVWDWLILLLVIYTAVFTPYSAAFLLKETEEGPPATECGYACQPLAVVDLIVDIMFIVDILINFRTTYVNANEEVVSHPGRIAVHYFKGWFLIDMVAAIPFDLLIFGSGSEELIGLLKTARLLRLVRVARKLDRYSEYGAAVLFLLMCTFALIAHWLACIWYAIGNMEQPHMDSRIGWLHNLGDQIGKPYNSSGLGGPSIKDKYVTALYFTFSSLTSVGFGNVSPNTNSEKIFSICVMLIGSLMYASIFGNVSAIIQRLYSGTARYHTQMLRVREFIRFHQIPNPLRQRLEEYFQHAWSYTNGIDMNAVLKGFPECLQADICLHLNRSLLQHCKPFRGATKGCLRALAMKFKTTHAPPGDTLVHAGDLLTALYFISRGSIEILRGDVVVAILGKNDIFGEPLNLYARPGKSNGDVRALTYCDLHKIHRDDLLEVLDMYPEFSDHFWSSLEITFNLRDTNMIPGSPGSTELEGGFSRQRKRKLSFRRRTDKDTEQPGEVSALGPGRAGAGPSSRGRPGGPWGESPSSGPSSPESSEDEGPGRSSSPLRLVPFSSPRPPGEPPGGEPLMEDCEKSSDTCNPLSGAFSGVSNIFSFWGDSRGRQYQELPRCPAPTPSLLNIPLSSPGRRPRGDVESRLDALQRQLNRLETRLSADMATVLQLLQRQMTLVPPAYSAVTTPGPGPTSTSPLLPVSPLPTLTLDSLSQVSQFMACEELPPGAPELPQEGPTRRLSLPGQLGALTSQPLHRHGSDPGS
For the molecule `Cc1cc(OCC(=O)N2CCOCC2)ccc1NC(=O)C1CCCCC1`, the “hERG current change (%, negative = inhibition) at 1uM” value was 10.4%.
For `COCCn1c(C)cc(C(=O)CN2CCCCC2)c1C.O=C(O)C(=O)O`, the “hERG current change (%, negative = inhibition) at 1uM” value was 19.3%.
Under `Cc1cc(C)c(COCc2cc(/C=N/O)c(C)cc2C)cc1/C=N/O` stands 5.04%.
Take `Cc1ccc(-c2nc3ccsc3c(=O)[nH]2)cc1`: the “hERG current change (%, negative = inhibition) at 1uM” value stood at 18.1%.
Under `c1csc(-c2nnc(NC3CCCCC3)c3ccccc23)c1` stands -40.8%; under `CCC(=O)Nc1ccc(C(=O)NNC(=O)c2cccs2)cc1`, -2.98%.
`O=C(Nc1cccnc1)c1ccc([N+](=O)[O-])cc1Cl`: the “hERG current change (%, negative = inhibition) at 1uM” value was 3.79%.
Consider `CCOC(=O)Cn1c(=N)n(Cc2ccccc2F)c2ccccc21.Cl`, for which the “hERG current change (%, negative = inhibition) at 1uM” value was determined as 4.5%.
Turning to `Cc1ccc(S(=O)(=O)N2CCCC2CNC(=O)C(=O)NC2CC2)cc1` (stereo not drawn), the “hERG current change (%, negative = inhibition) at 1uM” value is listed as 14.6%.
On to `CCCCc1ccc(NC(=O)C(=O)NCCN2CCN(Cc3ccc([N+](=O)[O-])cc3)CC2)cc1`, for which the “hERG current change (%, negative = inhibition) at 1uM” value is reported as -6.8%.
For the molecule `COc1ccccc1OCCNC(=O)c1ccccc1C`, the “hERG current change (%, negative = inhibition) at 1uM” value turned out to be 14.3%.
With `COc1ccc(NC(=O)c2c(C)nn(-c3ccccc3)c2Cl)cc1`, the “hERG current change (%, negative = inhibition) at 1uM” value is 15.5%.
As for `CCn1nnnc1SCC(=O)c1ccc(C)cc1C`, the figure is 12.8%; as for `Cn1c(Sc2ccc(Cl)cc2)c(C=O)c2ccccc21`, 12.5%.
As for `CCOc1ccc(S(=O)(=O)Nc2ccc(O)c(Sc3ncn[nH]3)c2)cc1`, the “hERG current change (%, negative = inhibition) at 1uM” value is reported as 9.09%.
Turning to `O=S(=O)([N-]c1nc2ccccc2nc1-n1cc[n+](Cc2ccccc2)c1)c1ccc(Br)cc1`, the “hERG current change (%, negative = inhibition) at 1uM” value is 18.1%.
For the molecule `COc1ccc(Nc2nc(S(=O)(=O)c3ccc(C)cc3)c(Cl)s2)cc1`, the “hERG current change (%, negative = inhibition) at 1uM” value came to 11.6%.
In the case of `CC(C)CN(C(=O)c1ccc([N+](=O)[O-])s1)c1c(N)n(Cc2ccccc2)c(=O)[nH]c1=O`, the “hERG current change (%, negative = inhibition) at 1uM” value came out at 12.7%.
As for `CC(C)CCN1CC(O)=C(c2nc3ccccc3[nH]2)C1=N`, the figure is -5.93%; as for `O=C(Cc1ccccc1)NC(NCCCN1CCOCC1)(C(F)(F)F)C(F)(F)F`, 8.29%; as for `CCOCCCNC(=O)c1cccc(OC2CCN(S(C)(=O)=O)CC2)c1`, 10.8%.
Turning to `CCOC(=O)c1[nH]c2ccc(Br)cc2c1NC(=O)CCN1CCCC(C)(C)C1`, the “hERG current change (%, negative = inhibition) at 1uM” value is reported as -46.2%.
For `COc1cccc(CNc2ccc([N+](=O)[O-])cc2Cl)c1O`, the “hERG current change (%, negative = inhibition) at 1uM” value turned out to be 14.4%.
For the molecule `CCOC(=O)C(=O)/C(=C\N(C)C)c1onc(-c2c(F)cccc2Cl)c1C(=O)OC`, the “hERG current change (%, negative = inhibition) at 1uM” value is recorded as 5.72%.
Turning to `CCN(CC)S(=O)(=O)c1ccc(NC(=O)c2cccc3c2C(=O)N(CCOC)C3)cc1`, the “hERG current change (%, negative = inhibition) at 1uM” value was determined as 0.268%.
Under `CC(=O)N(CCc1ccccc1C)Cc1cc2ccc(C)cc2[nH]c1=O` stands 9.04%.
`Cc1ccc(NNC(=O)C(=O)N2CCCCC2)cc1`: the “hERG current change (%, negative = inhibition) at 1uM” value is 9.03%.
For the molecule `Nc1nc(COc2ccc(F)cc2)nc(N2CCCCC2)n1`, the “hERG current change (%, negative = inhibition) at 1uM” value was 11.2%.
As for `COc1ccc(NC(=O)/C(=C/c2ccc3c(c2)OCO3)NC(C)=O)cc1`, the figure is 16.4%.
As for `COc1ccc(OCCSc2nnc(CCNC(=O)c3ccc(OC)cc3)n2C)cc1`, the figure is 0.796%.
`CCCC(=O)Nc1ccc(Nc2ccccc2)cc1`: the “hERG current change (%, negative = inhibition) at 1uM” value is listed as 7.97%.
For `CCCC(=O)Nc1ccccc1NC(=O)C1CCCCC1`, the “hERG current change (%, negative = inhibition) at 1uM” value came to 17.9%.
For `CN1CCN(c2ccc(NC(=S)NC(=O)/C=C/c3ccco3)cc2)CC1`, the “hERG current change (%, negative = inhibition) at 1uM” value was 13.8%.
Under `CC(=O)C1=C(C)NC2=C(C(=O)c3ccccc32)C1c1ccccc1` (stereo not drawn) stands 12.5%; under `CCCc1cc(=O)oc2c(C)c(OCC(=O)NC3CCN(Cc4ccccc4)CC3)ccc12`, -19.4%.
As for `COc1ccc(C(=O)NC(=S)Nc2ccc(N3CCCC3)cc2)cc1`, the figure is 14.2%; as for `COc1ccc(NC(=O)C(CC(=O)O)Cc2ccc(Cl)cc2)cc1` (stereo not drawn), 10.8%; as for `COc1ccc2c(=O)c3c(=O)n(Cc4ccco4)c(-c4cc(OC)c(OC)c(OC)c4)nc3oc2c1`, -3.4%.
As for `O=C(CN(C1CCCCC1)S(=O)(=O)c1ccc(Br)cc1)NCc1ccncc1`, the “hERG current change (%, negative = inhibition) at 1uM” value is on record as -35%.
For `O=C(Nc1cccc(NC(=O)c2cc([N+](=O)[O-])ccc2Cl)n1)c1cc([N+](=O)[O-])ccc1Cl`, the “hERG current change (%, negative = inhibition) at 1uM” value is reported as 0.608%.
Turning to `Cc1ccc(NC(=O)c2cc3c(=O)oc4ccccc4c3s2)nc1`, the “hERG current change (%, negative = inhibition) at 1uM” value turned out to be 1.73%.
Consider `COC(C(=O)Nc1cc([N+](=O)[O-])ccc1C)c1ccccc1` (stereo not drawn), for which the “hERG current change (%, negative = inhibition) at 1uM” value is on record as -4.8%.
As for `C#C[C@]1(O)CC[C@H]2[C@@H]3CCC4=C(CCC(=O)C4)[C@H]3CC[C@@]21C`, the figure is 19.4%; as for `CCCN(C(=O)COc1ccc(Cl)cc1Cl)c1c(N)n(Cc2ccccc2)c(=O)[nH]c1=O`, 6.92%; as for `Cn1cccc1C(=O)OCC(=O)Nc1cc(C(C)(C)C)nn1-c1ccccc1`, -10.2%.
With `O=C(N/C(=C/c1ccc(Br)cc1)C(=O)N1CCCCC1)c1ccccc1F`, the “hERG current change (%, negative = inhibition) at 1uM” value is given as -1.06%.
As for `CC(C)N(Cc1nccn1C)C(=O)c1ccc(OC2CCN(C(=O)C3CC3)CC2)cc1`, the “hERG current change (%, negative = inhibition) at 1uM” value is listed as 11.1%.
With `COC(=O)c1nn(-c2ccccc2)c(Sc2ccc(Br)cc2)c1/C=N/O`, the “hERG current change (%, negative = inhibition) at 1uM” value was determined as 7.27%.
With `O=C(NCCNC(=O)c1ccc(Br)o1)c1cccnc1`, the “hERG current change (%, negative = inhibition) at 1uM” value amounted to 12.5%.
Turning to `CN(CC(=O)Nc1c(Cl)cccc1Cl)C(=O)c1cc(S(=O)(=O)N(C)C)ccc1N1CCCC1`, the “hERG current change (%, negative = inhibition) at 1uM” value worked out at 12.5%.
As for `CC1=CCC(Cc2nc3ccccc3o2)C1(C)C` (stereo not drawn), the “hERG current change (%, negative = inhibition) at 1uM” value was found to be 9.66%.
For `COc1ccccc1OCCn1c(=O)n(C)c2ccccc21`, the “hERG current change (%, negative = inhibition) at 1uM” value came to 12.5%.
With `Cc1ccc(NC(=O)CSc2ccc(-c3cccnc3)nn2)cc1`, the “hERG current change (%, negative = inhibition) at 1uM” value was found to be 4.84%.
For the molecule `CN(C)c1ccc(N=c2sc3ccccc3n2C)cc1`, the “hERG current change (%, negative = inhibition) at 1uM” value is on record as 13%.
Take `CC1CC(c2ccccc2)n2nc(N3C(=O)c4ccccc4C3=O)nc2N1` (stereo not drawn): the “hERG current change (%, negative = inhibition) at 1uM” value is 12.1%.
Under `O=C(NC1CC1)c1scc2c1OCCO2` stands 13.1%; under `CN(C)CC(O)COc1ccc(C(C)(C)c2ccc(OCC(O)CN(C)C)cc2)cc1.Cl` (stereo not drawn), 12.6%.
As for `CCOn1c(=O)c(-c2ccc(OC)c(OC)c2)[n+]([O-])c2ccccc21`, the “hERG current change (%, negative = inhibition) at 1uM” value was 11.5%.
In the case of `O=C(Cn1nc(Cc2cccnc2)c2ccccc2c1=O)NCC1COc2ccccc2O1` (stereo not drawn), the “hERG current change (%, negative = inhibition) at 1uM” value is given as -19.9%.
`CC(=O)c1ccc(Nc2c(C)n(C)n(-c3ccccc3)c2=O)cc1`: the “hERG current change (%, negative = inhibition) at 1uM” value amounted to 8.11%.
Under `O=C(CSc1nnnn1-c1ccccc1F)Nc1nc2ccccc2s1` stands -8.48%.
As to `CCOc1ccc(NC(=O)CSc2nncc(=O)[nH]2)cc1`, the “hERG current change (%, negative = inhibition) at 1uM” value was found to be 13.3%.
Regarding `COc1ccc2c(c1)[nH]c(=O)c1sc3ccccc3c12`, the “hERG current change (%, negative = inhibition) at 1uM” value is listed as 12.8%.
As for `COc1cc(-c2cc(C(F)(F)F)n3ncc(C(=O)O)c3n2)cc(OC)c1OC`, the “hERG current change (%, negative = inhibition) at 1uM” value worked out at 10.1%.
As for `N#CC(c1ccccc1)c1ccc(C(=O)c2ccc(F)cc2)cc1` (stereo not drawn), the figure is 1.86%.
`Cc1ccc(C)c(-c2cc(C(=O)NNC(=S)NCC(C)C)c3ccccc3n2)c1`: the “hERG current change (%, negative = inhibition) at 1uM” value was -10.6%.
For `Cc1cc(-c2nsc(=O)o2)c(S(C)(=O)=O)s1`, the “hERG current change (%, negative = inhibition) at 1uM” value worked out at 4.62%.
As for `O=[N+]([O-])c1cccc(-c2cc(-c3cc(Br)ccc3O)[nH]n2)c1`, the “hERG current change (%, negative = inhibition) at 1uM” value stood at 19.2%.
In the case of `Cc1ccccc1NC(=S)/C(=C(\[O-])c1cc(C)n(Cc2ccccc2Cl)c1C)[n+]1ccccc1`, the “hERG current change (%, negative = inhibition) at 1uM” value was found to be 15.2%.
`COc1cc2cccc(OC)c(=O)c2c(OC)c1OC`: the “hERG current change (%, negative = inhibition) at 1uM” value is listed as 14.3%.
For `CCC(C)(C)NC(=O)C(c1ccc(C)o1)N(C(=O)c1csnn1)c1cccc(F)c1` (stereo not drawn), the “hERG current change (%, negative = inhibition) at 1uM” value worked out at 7.95%.
In the case of `COc1cc(OC)c(C2SCCN2S(=O)(=O)c2ccc(F)cc2)cc1OC` (stereo not drawn), the “hERG current change (%, negative = inhibition) at 1uM” value amounted to 17.7%.
Take `C=CCN(CC=C)C(=O)CN1C(=O)NC(Cc2c[nH]c3ccccc23)C1=O` (stereo not drawn): the “hERG current change (%, negative = inhibition) at 1uM” value is 14.1%.
As for `CCOC(=O)C1=C(C)C(c2ccccc2O)NC(=O)N1` (stereo not drawn), the “hERG current change (%, negative = inhibition) at 1uM” value worked out at 10.8%.
For the molecule `CCc1ccc(CN(C)C(=O)CCc2nnc(COc3ccccc3)o2)cc1`, the “hERG current change (%, negative = inhibition) at 1uM” value is reported as 14.7%.
`Cc1ccc(Nc2cc(=O)n(C3CCCCC3)c(=O)[nH]2)cc1C`: the “hERG current change (%, negative = inhibition) at 1uM” value is reported as 16.1%.
As for `COC(=O)C1=C(c2ccccc2OCc2ccccc2)C[C@@H]2CC[C@H]1N2C(=O)NCc1ccc(F)cc1`, the “hERG current change (%, negative = inhibition) at 1uM” value amounted to 17.6%.
As for `CCOC(=O)c1c(-c2ccc(C)cc2)csc1NC(=O)C1CCCO1` (stereo not drawn), the figure is 7.2%.
Regarding `C=CCn1c(O)c(/C=C2/C=CC=N2)c(=O)[nH]c1=O`, the “hERG current change (%, negative = inhibition) at 1uM” value amounted to 17.3%.
Regarding `COC(=O)CNC(=O)C1CC(=O)N(CCc2ccc(F)cc2)C1` (stereo not drawn), the “hERG current change (%, negative = inhibition) at 1uM” value is listed as 9.5%.
Under `CCOC(=O)c1cnn(-c2ccccc2)c1-n1cccc1C(=O)C(=O)Nc1ccc(F)cc1` stands 8.92%.
As for `Cc1ccc(-c2c(=O)n(O)c3ccccc3[n+]2[O-])cc1`, the figure is 9.77%; as for `CCc1cc(-c2n[nH]c(=S)n2-c2cccc(C)c2)cs1`, 6.21%.
Under `CCOc1cc(CNC(C)(C)C)ccc1OCC(=O)Nc1cccc(C(F)(F)F)c1.Cl` stands -0.133%; under `Cn1c(N)c(C(=O)CSc2nnc(-c3ccccc3F)n2C2CC2)c(=O)n(C)c1=O`, 6.17%.
Regarding `Cc1cccc(N(CC(=O)NCCSc2nc3ccccc3s2)S(=O)(=O)c2ccccc2)c1`, the “hERG current change (%, negative = inhibition) at 1uM” value is listed as 10.8%.
Take `CNc1nc(OCC#N)nc(N2CCCCC2)n1`: the “hERG current change (%, negative = inhibition) at 1uM” value amounted to 9.08%.
